Hit rate of the full screen: of about 310,000 compounds, about 14,000 (4.5%) showed an effect of 50% or more. Effects have a minus sign here. The list shows a part of the results.
Biological target: human ether-à-go-go-related gene (hERG) potassium channel (human, UniProt Q12809)
Assay: primary screen, population patch clamp on CHO cells stably expressing hERG
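Also: peak tail current of the secondary pulse compared with the same well before compound.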

Chain of human ether-à-go-go-related gene (hERG) potassium channel (Q12809 whole entry, looked up): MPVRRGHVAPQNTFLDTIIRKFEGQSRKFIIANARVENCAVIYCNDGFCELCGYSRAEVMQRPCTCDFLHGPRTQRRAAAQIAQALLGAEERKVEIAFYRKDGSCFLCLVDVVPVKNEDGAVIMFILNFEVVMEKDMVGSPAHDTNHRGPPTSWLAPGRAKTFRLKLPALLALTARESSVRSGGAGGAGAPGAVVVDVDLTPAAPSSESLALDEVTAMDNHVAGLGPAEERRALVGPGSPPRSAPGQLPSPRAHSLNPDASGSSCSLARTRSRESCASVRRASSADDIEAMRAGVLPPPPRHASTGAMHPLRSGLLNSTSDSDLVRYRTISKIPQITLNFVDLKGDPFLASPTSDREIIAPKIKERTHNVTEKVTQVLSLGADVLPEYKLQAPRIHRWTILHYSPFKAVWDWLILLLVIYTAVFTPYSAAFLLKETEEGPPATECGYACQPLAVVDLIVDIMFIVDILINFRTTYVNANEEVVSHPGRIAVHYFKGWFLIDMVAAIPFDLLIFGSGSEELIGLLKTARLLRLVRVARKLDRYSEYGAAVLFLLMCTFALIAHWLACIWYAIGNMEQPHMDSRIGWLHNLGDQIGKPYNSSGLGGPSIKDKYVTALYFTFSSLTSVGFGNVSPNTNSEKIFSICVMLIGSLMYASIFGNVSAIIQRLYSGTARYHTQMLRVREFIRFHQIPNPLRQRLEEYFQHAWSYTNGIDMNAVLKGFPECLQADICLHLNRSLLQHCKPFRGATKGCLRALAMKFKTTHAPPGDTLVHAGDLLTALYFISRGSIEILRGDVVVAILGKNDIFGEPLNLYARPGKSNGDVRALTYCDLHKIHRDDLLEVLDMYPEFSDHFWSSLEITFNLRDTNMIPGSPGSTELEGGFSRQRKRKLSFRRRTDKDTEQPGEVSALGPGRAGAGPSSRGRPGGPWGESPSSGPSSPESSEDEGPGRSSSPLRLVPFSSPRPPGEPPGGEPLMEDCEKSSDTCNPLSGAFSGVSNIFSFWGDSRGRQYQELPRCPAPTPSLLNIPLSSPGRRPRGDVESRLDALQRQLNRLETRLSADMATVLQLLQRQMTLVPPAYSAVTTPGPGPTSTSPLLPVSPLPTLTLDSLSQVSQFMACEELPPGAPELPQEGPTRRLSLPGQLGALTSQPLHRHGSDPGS

SMILES | hERG current change (%, negative = inhibition) at 10uM [%]
CC(=O)Oc1ccc(-c2cccc(C(=O)N(C)c3ccc(O)cc3)c2)cc1 | -17.8
Cc1ccc(S(=O)(=O)N2CCOC2CNC(=O)C(=O)NCCN2CCOCC2)cc1 (stereo not shown) | 10.6
COc1ccc(C(C(=O)NC2CCCC2)N(Cc2ccccc2)C(=O)c2nsc(Cl)c2Cl)cc1 (stereo not shown) | 6.84
COC(=O)c1cc(-c2ccccc2)on1 | -8.87
COc1ccccc1N(CC(O)CN1CCCC1)S(=O)(=O)c1ccccc1 (stereo not shown) | -4.48
COc1cc(C(=O)NCc2cccc(Cl)c2)ccc1OCC(=O)N1CCOCC1 | -13.2
C=CC(COCc1ccccc1)N(Cc1ccccc1)S(=O)(=O)c1ccccc1Br (stereo not shown) | 2.07
Cc1oc(C(N)=O)cc1COc1ccc(C(N)=O)cc1 | 10.5
CN1CCC(=NNC(=O)C(=O)Nc2ccccc2)CC1 | 6.07
OCCC1CN(Cc2ccc(F)cc2)CCN1CCc1ccccc1 (stereo not shown) | -74.2
CC(C)(C)NC(=O)C1CCCN(S(=O)(=O)c2cccc3cccnc23)C1 (stereo not shown) | 2.94
CCN(CC)P(=O)(Nc1cccc(C(F)(F)F)c1)c1ccc(N(C)C)cc1NC(=O)c1ccco1 (stereo not shown) | 1.31
COCCSc1nc(N)c(NC(=O)c2ccc(OC)cc2)c(=O)[nH]1 | 25.2
CCOC(=O)CC1C(=O)NCCN1c1nc2ccc(C)cn2c(=O)c1/C=C1\SC(=S)N(C(C)CC)C1=O (stereo not shown) | -2.49
O=S(=O)(NC1CCN(Cc2ccccc2)CC1)c1ccc(Cl)cc1 | -41.3
COc1cccc(/C=C/C(=O)Nc2ccc(N3CCOCC3)cc2)c1OC | -7.24
CCC(C(=O)NCc1ccco1)n1nc(C)c2c(C)n(-c3ccccc3)nc2c1=O (stereo not shown) | -8.91
CCCC1(c2ccccc2)NC(=O)N(CC(=O)c2[nH]c(C)c(C(=O)OCC)c2C)C1=O (stereo not shown) | 12.5
COc1cc(/C=C/C(=O)OCC(=O)NCc2ccco2)cc(OC)c1OC | 16.3
C=CCn1c(SCC(=O)NCc2ccccc2)nnc1-c1ccccc1O | -3.41
CCOC(=O)Nc1nnc(-c2ccc(OC)c(OC)c2)s1 | 2.95
CC(=O)c1cccc(CN2CCCC(C(=O)Nc3cccc(-n4cccn4)c3)C2)c1 (stereo not shown) | -23.9

SMILES | hERG current change (%, negative = inhibition) at 10uM [%]
Cc1ccc(NC(=O)CN2CCOCC2)cc1Cl | 8.02
CN(Cc1cn(C)nc1-c1ccc(Oc2ccccc2)cc1)CC1COCCO1 (stereo not shown) | -44.4
Cn1c(S(=O)(=O)c2ccc([N+](=O)[O-])cc2)nc(Br)c1Br | 1.03
COc1cc(-c2nnc(CSc3nnc(Nc4ccc(C(C)C)cc4)s3)o2)cc(OC)c1OC | -25.8
CC(C)Cc1nnc(NC(=O)CCC(=O)N2CCOCC2)s1 | -10.7
CCOc1ccc(CCNC(=O)COC(=O)c2ccc3c(c2)OCCO3)cc1OCC | -6.17
O=C1NC(Cc2ccccc2)C(=O)N1Cc1cc([N+](=O)[O-])cc2c1OCOC2 (stereo not shown) | 7.47
CC(=O)Nc1nonc1-c1nc2ccccc2n1Cc1ccccn1 | -24.7
C#CCOCCOCCOCCNc1nc(N2CCN(C(=O)CCCCCCCCCCNC(=O)Cn3cc(C[C@@H](C)O)nn3)CC2)nc(N2CCN(C(=O)CCCCCCCCCCNC(=O)[C@@H](CCC(=O)O)n3cc(CCCCCN)nn3)CC2)n1 | 10.7
COC(=O)c1ccccc1S(=O)(=O)N1CCC(C(=O)NC2CCCCC2C)CC1 (stereo not shown) | -1.87
Clc1cccc(CSc2nnc(-c3ccccn3)n2Cc2ccco2)c1 | -35.7
CCN(CC(=O)Nc1ccc2c(c1)OCCO2)C(=O)c1ccc([N+](=O)[O-])s1 | -9.59
CC(C)Oc1cccc(C(=O)C2CCCN(C(=O)c3cc(C(F)(F)F)[nH]n3)C2)c1 (stereo not shown) | -14.4
Cc1ccc(NC(=O)CN2C(=O)CNC2=O)cc1 | 8.33
COc1cccc(N(CC(=O)N2CCc3ccccc3C2)S(C)(=O)=O)c1 | -26.7
CN(Cc1nc(-c2ccccn2)no1)S(=O)(=O)c1ccc(Br)cc1 | -4.39
FC(F)(F)c1ccc(-c2noc(CN3CCCN(C4CCCCC4)CC3)n2)cc1 | -75.7
CCOC(=O)C1=C(COC(=O)COc2ccc(Br)cc2)NC(=O)NC1C (stereo not shown) | 2.16
Cc1ccc(Cn2c(=N)c(C(=O)NCC3CCCO3)cc3c(=O)n4cccc(C)c4nc32)cc1 (stereo not shown) | -81.5
COc1ccc(-c2cc(CN3C(=O)c4ccccc4C3=O)on2)cc1 | 4.86
COc1ccc2c(C(=O)CCl)c[nH]c2c1 | -1.84
CCOc1ccc2[nH]c(=O)c(CN(Cc3nnnn3CCc3ccccc3)CC3CCCO3)cc2c1 (stereo not shown) | -45.4

SMILES | hERG current change (%, negative = inhibition) at 10uM [%]
CC(C)(CN1CCOCC1)NS(=O)(=O)c1ccccc1 | -1.36
Cc1cccn2c(=O)nc(SCC(=O)NCc3ccccc3Cl)nc12 | -13.4
Cc1cc(C(=O)Nc2ccc(Cl)cc2)n(-c2ccccc2)n1 | 1.48
CC1CCc2sc3c(c2C1)c1ncnn1c(=O)n3CC(=O)c1ccc(Br)cc1 (stereo not shown) | 14.2
CCN1C(=O)N(S(=O)(=O)C(F)(F)F)[C@@H](c2ccccc2)C(C(=O)OC)=C1C | 1.23
O=C(NCCOC(=O)c1ccc(C(=O)OCCNC(=O)c2ccccc2)o1)c1ccccc1 | 16.3
O=C(Cn1cc2c(n1)CCCC2)NCc1ccccn1 | 11.9
Cc1[nH]c(=O)[nH]c(=O)c1/C=N/NC(=O)[C@H](C)NC(=O)OC(C)(C)C | 4.09
Cc1ccc(C2=NN(CC(=O)O)C(=O)CC2)cc1 | -51.4
Cc1noc(C)c1COC(=O)c1cc(F)c(F)cc1Cl | 1.55
Cc1nc(N2CCCCC2)c2ccsc2n1.O=C(O)C(=O)O | -2.23
C=CCn1c(SCc2cc([N+](=O)[O-])cc3c2OCOC3)nc2cc(C(=O)O)ccc2c1=O | -7.17
COc1ccc(N(CC(=O)NCc2ccco2)S(=O)(=O)c2ccc(OC)c(OC)c2)cc1 | -19.6
CC(NC(=O)CCN1N=C(c2ccccc2)CCC1=O)c1ccc2c(c1)OCCO2 (stereo not shown) | 10.3
CCN1C[C@@]2(COC)C3[C@@H](OC)[C@H]4[C@@H]1[C@@]3(C1C[C@H]3[C@H](OC(=O)c5ccccc5)C1[C@]4(OC(C)=O)C[C@H]3OC)[C@@H](OC)C[C@H]2O (stereo partly shown) | -14.1
Cc1ccc(NC(=O)CN(C)C(=O)COC(=O)/C=C/c2cccs2)cc1 | 16.6
Cc1cc(F)ccc1S(=O)(=O)NCC(c1ccc2c(c1)OCO2)N1CCOCC1 (stereo not shown) | -16.8
Cl.ClC(CCN1CCN(Cc2ccccc2)CC1)c1ccccc1 (stereo not shown) | -20.6
Cc1cc(C)nc(N2CCC(C(=O)Nc3cccc(C(F)(F)F)c3)CC2)n1 | -17
COc1cc(/C=N/NC(=S)NCC2CCCO2)cc(OC)c1OC (stereo not shown) | -10.5
CC1(C)Cc2noc(N)c2C(C)(C)N1OC(=O)c1ccccc1 | -11.8
CCN(C(=O)CN1CCN(C)CC1)c1cccc2ccccc12.O=C(O)C(=O)O | -7.33

SMILES | hERG current change (%, negative = inhibition) at 10uM [%]
Cc1ccc(O)c(NC(=S)NC(=O)/C=C/c2ccccc2)c1 | 18.4
CCCCC(=O)N1CCN(c2nc3ccc(Cl)cc3s2)CC1 | -71.1
C=CCOc1cccc(C2C(C(=O)c3ccco3)=C(O)C(=O)N2CCN2CCOCC2)c1 (stereo not shown) | 6.65
CSCCC(NC(=O)COc1ccccc1)C(=O)NCCOc1ccccc1 (stereo not shown) | -4.01
CC1(C)CC(=O)c2sc(NC(=O)CN3C(=O)CCC3=O)nc2C1 | 4.87
Cc1ccc(OCC(=O)Nc2cccc(S(=O)(=O)N3CCCCCC3)c2)c([N+](=O)[O-])n1 | -0.913
O/N=C1/CCSc2ccccc21 | 3.5
Oc1ccc(/C=N/Nc2nc(-c3ccc(Cl)cc3)cc(C(F)(F)F)n2)cc1 | -11.4
COC(=O)CCCn1c(C)cc(C(=O)CCl)c1C | -4.98
COc1ccc(S(=O)(=O)N2CCC(n3cnc4cc(C(F)(F)F)ccc43)CC2)cc1 | -73.1
COc1cccc(NC(=O)Nc2ccc3c(c2)OCO3)c1 | 22.6
Cc1ccccc1CC1(CO)CCCN(C(=O)CCCN2CCCCC2=O)C1 (stereo not shown) | 13
Clc1ccc2c(c1)[C@H]1OCC[C@H]1[C@@H](c1ccco1)N2 | -4.03
O=C(NCCN1CCOCC1)c1ccc(Cl)cc1 | 16
CN(CCC1CCCCO1)C(=O)CCc1nnc(Cc2c[nH]c3ccccc23)o1 (stereo not shown) | 10.2
CC1=C(C)CC2(SC1)C(=O)N(c1ccccc1)N=C2N (stereo not shown) | -3.72
CCC(NC(=O)c1ccccc1Br)c1ccccc1 (stereo not shown) | 1.89
CCOC(=O)Cc1c(C)nc(N)[nH]c1=O | 15.3
O=C(CC1Oc2ccccc2NC1=O)NCCCN1CCN(Cc2ccccc2)CC1 (stereo not shown) | -17.5

From publication PMC4336329 (PLoS ONE, 2015)
